Test results reported in ChEMBL document CHEMBL1201862, “PubChem BioAssay data set” (2004).
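Step 1: Grow cells in 96-well plates. Step 2: Expose to compound for 48 hours at 5 concentrations. Step 3: Interpolate endpoints linearly; if unreached, use highest concentration. Here, GI50 denotes the concentration required for 50% inhibition of growth.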 Calls of active or inactive are those of the source. No stated cut-off is given here; in the data, active = GI50 up to about 1.1 µM and inactive = higher. Square brackets hold non-standard residues; d marks the D form. Peptide text beside a SMILES is read from it. * marks the point of attachment. Phe(4-NO2) = N[CH](Cc1ccc([N+](=O)[O-])cc1)C(=O)O; Boc = CC(C)(C)OC(=O)*; OtBu = CC(C)(C)O*

Test system: NCI-H322M
Experiment: NCI-60 cell line screen, 48 h

SMILES	GI50
CC(C)(C)OC(=O)NCCCCC(N)C(N)=O (stereo not drawn)	inactive: > 100 µM
CC1(c2ccc(F)cc2)C2C(=O)NC(=O)C1C(=O)NC2=O (stereo not drawn)	inactive: > 100 µM
CC1C[C@@]2(c3ccccc3)C(=O)CCC[C@H]2N1 (stereo partly drawn)	inactive: > 100 µM
NC(Cc1c[nH]c(I)n1)C(=O)O (stereo not drawn)	inactive: > 100 µM
CC(=O)Oc1cccc2c1C(=O)CCCC2	inactive: > 100 µM
COC(=O)c1cc(C)n(NC(=O)OC(C)(C)C)c1C	inactive: > 100 µM
COc1ccc2c(c1OC)C[C@@H]1c3c(cc4c(c3-2)OCO4)CCN1C	inactive: 29.6 µM
CN(C)CC1CCCC/C1=N\OC(=O)c1ccccc1 (stereo not drawn)	inactive: > 100 µM
CCOC(=O)C(=O)/C(=C/NC(=S)Nc1ccc(Cl)c(Cl)c1)C(=O)OCC	inactive: > 100 µM
COc1ccc(OC)c(NC(=O)C(=O)NNC(=O)c2sc(NNC(C)=O)nc2C)c1	inactive: 56.1 µM
CCOC(=O)C1CC/C(=C(/C#N)C(=O)OC)N1 (stereo not drawn)	inactive: > 100 µM
N#Cc1cccc(-n2[nH]c(=O)ccc2=O)c1	inactive: > 100 µM
CCN(CC)CCC(=O)OC1C(C)=CC(C)C(=O)CC(C(C)CC2CCC(O)C(OC)C2)OC(=O)C2CCCCN2C(=O)C(=O)[C@@]2(O)OC(CCC2C)CC(OC)\C(C)=C/C=C/C=C/C(C)CC(C)C(=O)C1OC (stereo partly drawn)	inactive: 11.2 µM
COC(=O)c1nn(C(=N)c2ccc(Cl)cc2)c2c1CCC2	inactive: > 100 µM
C=CCN1CC2CN=NC2(C#N)C1 (stereo not drawn)	inactive: > 100 µM
COC(=O)C1=C(C(=O)OC)C2(/N=C(\Nc3ccccc3)c3ccccc3)N(c3ccc(OC)cc3)CC(c3ccccc3)N2O1 (stereo not drawn)	inactive: > 100 µM
CCOc1ccc(/C=C/C(=O)c2sc(NNC(C)=O)nc2C)cc1	inactive: > 100 µM
C=C[Si](C)(C)COC(=O)/C(C#N)=C/C=C/c1ccccc1	inactive: > 100 µM
CO[C@H]1O[C@@H]2OC3(C)CCC4[C@H](C)CCC([C@H]1C)[C@]42OO3 (stereo partly drawn)	inactive: > 100 µM
Cc1ccnc2nc(-c3cccc4ccccc34)cc(O)c12	active: 0.042 µM
O=C(O)C#Cc1ccc([N+](=O)[O-])cc1	inactive: > 100 µM
O=C(N/N=C(\c1nc2ccc(Cl)cc2nc1O)C(O)c1ccccc1Cl)c1ccncc1 (stereo not drawn)	inactive: > 100 µM
CCCCc1ccc(Nc2nc(N)c3ncn(COCCO)c3n2)cc1	inactive: 42 µM
CC#COP(=O)(OCC)OCC	inactive: > 100 µM

SMILES	GI50
CN1CCN(c2ccc3[nH]c(-c4ccc5[nH]c(-c6ccc(O)cc6)nc5c4)nc3c2)CC1	inactive: 119 µM
O=C(NC1CCCCC1)c1cc2ccccc2cc1O	inactive: 49.8 µM
CC(=O)OCCn1cnc2c(NCC=C(C)C)ncnc21	inactive: > 100 µM
CC(C)=CCC/C(C)=C/C=C/C(C)=C/C1C[C@@]2(C(O)O1)[C@H](CCCO)/C(=C(/C)C=O)CC[C@]2(C)O (stereo partly drawn)	inactive: 12.5 µM
Nc1ccccc1SC(C[N+](=O)[O-])c1ccc2c(c1)OCO2 (stereo not drawn)	inactive: 10.9 µM
CNc1nnnn1C1OC(CO)C(O)C1O (stereo not drawn)	inactive: > 100 µM
Cc1ccc([N+](=O)[O-])cc1S(=O)(=O)Nc1ccc(C2=NOC(c3cccs3)C2)cc1 (stereo not drawn)	inactive: 24.3 µM
CC(=O)NC1C(OCc2ccccc2)OC(CO)C(O)C1OCC(=O)NC(C)C(=O)NC(CCC(=O)NCCCCCC(=O)Nc1ccc2c(c1)CN1C(=O)c3ccccc3C1=N2)C(N)=O (stereo not drawn)	inactive: 25.2 µM
CCCC(O)c1cn(-c2cccc(S(=O)(=O)O)c2)nn1 (stereo not drawn)	inactive: > 100 µM
CC(=O)NC(CCC(=O)OC(C)(C)C)C(=O)NC(CCC(=O)OC(C)(C)C)C(=O)NC(Cc1ccc([N+](=O)[O-])cc1)C(=O)NC(CCCCNC(=O)OC(C)(C)C)C(=O)NC(CCCCNC(=O)OC(C)(C)C)C(=O)NCC(=O)O (stereo not drawn) (Ac-E(OtBu)E(OtBu)[Phe(4-NO2)]K(Boc)K(Boc)G-OH; configuration not given here)	inactive: > 100 µM
O=C1/C(=C/c2ccc(Br)s2)NC(=S)N1CN1CCCCC1	inactive: 68.4 µM
CCCCCCCCCCCCCCCCCCNc1ccn(C2OC(COP(=O)(O)O)C(O)C2O)c(=O)n1 (stereo not drawn)	inactive: > 100 µM
COc1ccc2c(c1)CCCc1c-2nc2ccccc2c1N	inactive: 6.15 µM
Nc1c(C(=O)O)c2ccc([N+](=O)[O-])cc2c(=O)n1-c1nc2ccccc2s1	inactive: > 100 µM
CCOC(=O)c1ccc(NCC#CCN2CCCCC2)cc1	inactive: > 100 µM
COC12C=CC(C=C1C#N)CC2.COC12C=CC(CC1)CC2=O (stereo not drawn)	inactive: > 100 µM
COc1ccc2c(c1)C(=O)C(=O)c1cc(O)c(OC)c(OC)c1-2	inactive: 7.89 µM
O=C(Nc1cccc(O)c1)C(=O)C(C(=O)c1ccc(Cl)c(Cl)c1)C1OC(=O)c2ccccc21 (stereo not drawn)	inactive: 11.7 µM
OC1CCOc2ccccc21 (stereo not drawn)	inactive: > 100 µM
O=C(Nc1ccccc1)N1C(c2ccccc2)=N[C@@H](c2ccccc2)[C@@H]1c1ccccc1	inactive: 27.5 µM
COC(=O)N1N=C(c2ccccc2)C1c1ccccc1 (stereo not drawn)	inactive: > 100 µM
CCCCCCCCCCCCCCCC(=O)NCC(OCC)OCC	inactive: > 100 µM
Cc1c2ccncc2c(C)c2c1[nH]c1ccc(O)c(OCC(F)(F)F)c12	inactive: 5.86 µM
CC1(C)OCN(c2ccc(S(N)(=O)=O)cc2)Cn2c1nc1ccccc12	inactive: > 100 µM

SMILES	GI50
CCOc1ccccc1/N=N/C1C(=O)N(C(=O)CC(=O)Nc2ccccc2Cl)N=C1C (stereo not drawn)	inactive: > 100 µM
CN1C(=O)C2C(=O)N(Cc3ccccc3)CC(=O)N2c2cccnc21 (stereo not drawn)	inactive: > 100 µM
COc1ccccc1NC(=O)C(CC(C(=O)Nc1ccccc1OC)/C(C)=N/Nc1ccc([N+](=O)[O-])cc1[N+](=O)[O-])/C(C)=N/Nc1ccc([N+](=O)[O-])cc1[N+](=O)[O-] (stereo not drawn)	inactive: > 100 µM
O=C(NCc1cccs1)OC1CC2CCC1C2 (stereo not drawn)	inactive: > 100 µM
C[n+]1c(-c2ccccc2)cc2/c(=C\c3ccc([N+](=O)[O-])cc3)c3ccccc3n21	inactive: 9.35 µM
CC(Oc1ccccc1)C(=O)NN (stereo not drawn)	inactive: > 100 µM
CN1C2CC(=O)CC1[C@@H]1OC(c3ccccc3)O[C@H]21 (stereo partly drawn)	inactive: > 100 µM
OC1(c2ccccc2)OC(C#Cc2ccccc2)(c2ccccc2)c2ccccc21 (stereo not drawn)	inactive: 1.91 µM
CCCCCC/C=C/C#CCCCCCCCC(=O)O	inactive: > 100 µM
COc1ccccc1-c1cc(O)c2cc(C)cnc2n1	inactive: 51.9 µM
CC(=O)O[C@H]1CC[C@@]2(C)C(=CC[C@@H]3C2CC[C@]2(C)Nc4[nH]ncc4CC32)C1 (stereo partly drawn)	inactive: 45.7 µM
C[C@@H]1CC[C@H]2C(C)(C)[C@H]3C[C@@]12CC[C@@]3(C)O [CEDROL]	inactive: > 100 µM
CSc1nc(CO)c(CO)n1C	inactive: > 100 µM
CN(NC(=O)CCCl)C1=NCCN1	inactive: > 100 µM
CCOC(=O)NC(Nc1ccc(OC(F)(F)F)cc1)(C(F)(F)F)C(F)(F)F	inactive: > 100 µM
COC(=O)c1ccc(NCc2cc(O)ccc2O)cc1	inactive: 21.3 µM
C/C(=N\NC(=S)N1CCC(C2CCN(C(=S)N/N=C(\C)c3ccccn3)CC2)CC1)c1ccccn1	inactive: > 100 µM
Cc1nc(C)c(N2CCN(C(=O)O)CC2)c(O)n1	inactive: > 100 µM
CC(C)(C)OC(=O)n1cc(C2CN(O)C(=O)C23CCC(=O)N3Cc2ccccc2)c2ccccc21 (stereo not drawn)	inactive: 31.3 µM
CCCCCCCCCCCCO[PH](=O)OCCCCCCCCCCCC	inactive: > 100 µM
CC1CC2=Nc3ccccc3NC(c3ccccc3)C2=C(O)O1 (stereo not drawn)	inactive: > 100 µM
CC(=O)Oc1c(C)c2c(c3ccccc13)OC(C)(C)C2	inactive: 15.5 µM
O[C@]12CCCC[C@H]1CCC2	inactive: > 100 µM
CNS(=O)(=O)NN(C)S(=O)(=O)c1ccc(Br)cc1	inactive: > 100 µM

SMILES	GI50
O=C1C[C@@H](c2ccccc2)NCCCCN(O)CCCN1	inactive: > 100 µM
CN(C)CCCNc1cc(O)c2c(c1O)C(=O)c1ccccc1C2=O	inactive: 11.6 µM
CC(CC(C)[C@H]1CCC2[C@H]3C(CC(=O)[C@@]21C)[C@@]1(C)CCC(O)C[C@H]1C[C@@H]3O)C(=O)O (stereo partly drawn)	inactive: > 100 µM
[N-]=[N+]=Nc1cc(=O)oc2ccccc12	inactive: > 100 µM
COc1c2c3c4c(c(OC)c(=O)c5c(O)cc(OC)c(c6c(OC)cc(O)c(c1=O)c63)c54)C(C(C)O)C2C(C)=O (stereo not drawn)	active: 0.782 µM
C/C(=N\O)c1ccc(Nc2nc3ccccc3c3occc23)cc1	inactive: 17.6 µM
CCOC(=O)C1=CC(C)(C(=O)OCC)Nc2c(nc(OC)[nH]c2=O)N1 (stereo not drawn)	inactive: > 10 µM
CC(C)=NN/C(=N\c1ccc(Cl)cc1)NS(=O)(=O)c1ccc(Oc2cccc(Cl)c2C#N)cc1	inactive: > 100 µM
Cc1cc(C)nc(NC(=S)Nc2ccc([N+](=O)[O-])cc2)c1	inactive: > 100 µM
Cc1c(C(=O)O)n2c(S)nnc2c2ccccc12	inactive: > 100 µM
CC(C)(C)OC(=O)NCCc1cccc2c1oc1c(CCC(=O)O)cccc12	inactive: > 100 µM
COc1ccc2c(c1)c1c(n2CCN2CCOCC2)-c2cccc(OC)c2CC1	inactive: 68.7 µM
CN(C)C(=S)S [SODIUM DIMETHYLCARBAMODITHIOATE]	inactive: > 61.7 µM
CC1=NN(c2cccc(Cl)c2)C2(C1=C/C=C/c1ccccc1)C(Cl)C(=O)N2c1nc2ccccc2s1 (stereo not drawn)	inactive: 37.2 µM
Cc1cc2c3ccccc3[nH]c2c2ccnc(C)c12	inactive: 13.7 µM
CN(C)/N=N/c1c[nH]nc1C(N)=O	inactive: > 100 µM
COC(=O)[C@]12CSC[C@H]1C[C@H](c1ccc(N(C)C)cc1)N2	inactive: > 100 µM
NC(CSc1nc2ccccn2c1[N+](=O)[O-])C(=O)O (stereo not drawn)	inactive: > 100 µM
O=C(CCC(=O)C1Cc2ccccc2C1=O)Nc1cccc(C(F)(F)F)c1 (stereo not drawn)	inactive: > 100 µM
NCCCC[C@H](N)C(=O)Nc1ccc(-c2nc3ccccc3s2)cc1	inactive: 22.8 µM
COc1ccc(C(OCC2OC(n3ccc(NC(=O)c4ccccc4)nc3=O)C(O)C2O)(c2ccccc2)c2ccccc2)cc1 (stereo not drawn)	inactive: 29.9 µM
